Results published in PubChem BioAssay AID1963576 (National Center for Advancing Translational Sciences (NCATS), 2024).
The campaign covered roughly 46,000 compounds. About 60 (0.1%) were called active. Not shown: some 3% with an inconclusive outcome. Calls come from the whole dose curve; as a rule, active = well fitted inhibition curve with a large enough effect; inconclusive = small, poorly fitted or top-dose-only effect; inactive = no such curve, though single readings can be large or run the other way. The list shows a part of the results.

Assay: Primary qHTS assay for Inhibitors of ovarian cancer metastasis using an organotypic tumor microenvironment (TME) model.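 For activity change, negative = inhibition: plate controls were DMSO wells for no effect and tomatine positive control wells for full effect.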 Note: nearly all actives have a fitted effect of over 65% in size.
Conditions: SKOV3ip1-GFP adhesion/invasion on 3D omental model, fluorescence; series mostly up to 45.8 µM; activity change, negative = inhibition: at the top concentration
Summary of the method: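 Adhesion/invasion was scored as fixed GFP-labeled SKOV3ip1 cell counts (488/509 nm), normalized to DMSO and tomatine controls. Cancer cells in serum-free medium, with four compound doses (0.36-46 umol/L), sat 2 hr at RT then 16 hr at 37 C on a 48 hr fibroblast/mesothelial/ECM culture.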

Activity change, negative = inhibition, inactive:
O=C1CN(C(=O)c2c(F)cccc2Cl)C(c2ccc(F)cc2)c2cc(Br)ccc2N1 (configuration not stated) -2.69%
Fc1ccc(-c2nnn3c2nc(NCc2ccccc2)c2ccccc23)cc1 -14.9%
Cc1ccc(CN2C(=O)CN(C3CCCCCC3)C(=O)C2c2ccc(F)cc2)cc1 (configuration not stated) -0.0092%
COC(=O)c1cccc(CN2C(=O)SC(Nc3ccccc3C)C2=O)c1 (configuration not stated) -5.3%
CCOc1ccc(NC(=O)CSc2nccn2C2CCCC2)cc1 -3.92%
CN(C(=O)CSc1nc2ccc(NC(=O)c3cccs3)cc2s1)c1ccccc1 3.5%
O=C(Cn1nnc(-c2cccc(C(F)(F)F)c2)n1)NCc1ccc(F)cc1 -19.8%
COc1ccc(C(=O)Nc2nc(-c3nnn(-c4cc(OC)ccc4OC)c3C)ns2)cc1 -18.3%
CC(C)CCNC(=O)Cn1cc(S(=O)(=O)Cc2ccc(F)cc2)c2ccccc21 -8.81%
Cc1c(C(=O)Oc2ccc(Br)cc2)sc2ncn(Cc3ccccc3F)c(=O)c12 1.86%
Cc1ccc(NC(=O)C(=O)NCC(c2ccc3c(c2)OCO3)N2CCN(C)CC2)cc1C (configuration not stated) -19.1%
COc1ccc(-c2cc(C(=O)NCc3ccc(C)cc3)c3cc(C(C)C)ccc3n2)cc1 6.02%
Cc1cc(S(=O)(=O)NCCc2csc(-c3cccc(F)c3)n2)ccc1F 7.03%
CCCC(=O)OC1=C(C(C)=O)N(Cc2ccccc2)S(=O)(=O)c2ccccc21 2.02%
CC(=O)N1c2ccc(S(=O)(=O)NCC3CCC(C(=O)Nc4cccc(C)c4)CC3)cc2CC1C (configuration not stated) 5.65%
COc1cccc2cc(-c3nc4ccc(C)cc4[nH]3)c(=O)oc12 -11.3%
O=C(NCCCN1CCN(c2ccccc2F)CC1)c1sc2ncccc2c1-n1cccc1 -13.7%
O=C1CCSC2(C(=O)N(Cc3ccccc3)c3ccccc32)N1c1ccccc1 (configuration not stated) -4.96%
CCCCOc1ccc(S(=O)(=O)n2nc(C)c(S(=O)(=O)N3CCCCCC3)c2C)cc1 -9.04%
O=C(CCS(=O)(=O)c1cc2c(cc1Cl)NC(=O)CO2)NCc1ccccc1 -17.5%
CCc1ccc2nc(N3CCC(C(=O)NCCC(C)C)CC3)sc2c1 -4.29%
CCN(Cc1ccccc1)S(=O)(=O)c1ccc(N2CCCCS2(=O)=O)cc1 -14%
CCc1cccc(C)c1NC(=O)c1cc2ccccc2o1 -8.67%
O=C(NCc1ccccc1)c1ccc(CSc2nc3cccnc3n2Cc2ccccc2)cc1 1.77%
Cn1cc(S(=O)(=O)c2ccccc2)c(=O)c2cc(F)c(N3CCCC3)cc21 21.4%
CC(=O)OCC(CCn1cnc2cnc(N)nc21)COC(C)=O 2.98%
COc1ccc(CCNC(=O)c2cc3c(=O)n4ccccc4nc3n2C)cc1 2.52%
NNc1nncc2ccccc12 -1.19%
CCC(=O)N1CCc2cc(Br)cc(S(=O)(=O)N3CCC(C(=O)Nc4cccc(C)c4)CC3)c21 2.58%
CCC(Cn1nnc2ccccc2c1=O)NC(=O)Nc1cc(OC)cc(OC)c1 (configuration not stated) 2.46%
CCc1ccc(NC(=O)CSC2=Nc3ccccc3C3=NC(CC(=O)NCc4cccs4)C(=O)N23)cc1 (configuration not stated) -6.86%
COc1ccc(NC(=O)Cn2cc(S(=O)(=O)c3ccccc3)c(=O)c3cc(C)ccc32)cc1Cl -7.25%
Cc1cc(N2CCN(C)CC2)nc2ccc(NC(=O)c3ccccc3F)cc12 -6.77%
CCCSc1nnc(NC(=O)Cc2coc3cc(C)ccc23)s1 2.85%
O=c1c2cccnc2n(Cc2ccc(Cl)cc2)c(=O)n1Cc1ccc(F)cc1 -2.34%
CNC(=O)c1cccc(-n2c(C)nc3cccnc32)c1C 6.93%
Cc1cccc(NC(=O)Nc2ccc(C)c(C)c2)n1 69.5%
O=C(CSc1nnc2[nH]c(=O)cc(-c3ccccc3)n12)Nc1ccccc1C(F)(F)F -7.25%
CC1CCCCN1CCCNC(=O)c1sc2ncccc2c1-n1cccc1 (configuration not stated) 9.35%
O=C(c1c[nH]c2ccc(S(=O)(=O)Nc3ccccc3F)cc2c1=O)N1CCCCCC1 2.11%
CC(C)c1ccc(C(=O)CC2(O)C(=O)N(CCc3ccccc3)c3ccc(Cl)cc32)cc1 (configuration not stated) -15.6%
CCOc1ccc(NC(=O)C(=O)NCCc2sc(-c3ccc(C)cc3)nc2C)cc1 14.6%
COc1cccc(NC(=O)Cn2nc(-c3ccncc3)ccc2=O)c1 21.5%
CNC(=O)C1CCC(Cn2c(=O)c3sccc3n(CC(=O)Nc3cc(C)cc(C)c3)c2=O)CC1 (configuration not stated) -1.46%
COc1ccc(CN2CCc3nc(N4CCN(c5ccc(F)cc5)CC4)ncc3C2)c(OC)c1OC -12.5%
CCOCCCNC(=O)C1CCN(c2nc3ccc(Cl)cc3[nH]2)CC1 6.02%
C=CC(=O)Nc1cccc(Oc2nc(Nc3ccc(N4CCN(C)CC4)cc3OC)ncc2Cl)c1 9.55%
O=C(c1cnn(-c2ccc(F)cc2)c1-n1cccc1)N1CCN(c2cccc(Cl)c2)CC1 1.16%
CCCN1C(=O)c2[nH]nc(-c3ccc(OC)cc3)c2C1c1ccccn1 (configuration not stated) 11.6%
COC(=O)c1sc(N2C(=O)c3oc4cc(C)c(C)cc4c(=O)c3C2c2ccccc2F)nc1C (configuration not stated) 8.62%
Cc1cccc(Cn2c(CN3CCC(C(=O)NCc4ccccc4Cl)CC3)cc3ccccc32)c1 0.175%
Cc1ccc(-n2c(-c3ccc(Br)cc3)nc3c(cnn3-c3ccccc3)c2=O)cc1 0.843%
O=C(Cn1c(=O)n(Cc2ccco2)c(=O)c2ccccc21)Nc1cccc(F)c1 -13.3%
CCOc1cc(C#N)c(NC(=O)c2ccc(OC)c(S(=O)(=O)N3CCCCC3)c2)cc1OCC -5.47%
COc1ccc2c(c1)CC(C(=O)Nc1ccc(Br)c(C)c1)CO2 (configuration not stated) 4.8%
CCN(C(=O)CSc1nc(-c2ccc(C(C)C)cc2)no1)c1ccccc1 -8.38%
O=C(Nc1nnc(S(=O)(=O)N2CCCc3ccccc32)s1)c1ccc(Cl)cc1 12.6%
COc1ccccc1N1CCN(S(=O)(=O)c2ccc(-c3coc(C)n3)cc2)CC1 -15.8%
COc1ccc(-n2nnc(-c3nc(-c4ccc5c(c4)OCO5)no3)c2C)cc1Cl -28.3%
COc1ccc(NC(=O)CSc2nncn3c2cc2occc23)c(OC)c1 -3.58%
COc1cc(C(=O)Nc2ccc(-c3nc4cc(C)c(C)cc4o3)cc2)cc(OC)c1OC -1.73%
CC(C)Oc1ccc(C(=O)N2CCC(c3nc4ccccc4s3)CC2)cc1 0.807%
CCOC(=O)c1ccc(NC(=O)CCc2c(C)nc3cc(-c4ccc(OC)cc4OC)nn3c2C)cc1 49.9%
CCC(C)NC(=O)Cn1c(=O)n(-c2cc(OC)cc(OC)c2)c(=O)c2ccccc21 (configuration not stated) 8.41%
CC1=C(C(=O)NCc2cccc(Cl)c2)C2(CCCCCC2)OC1=O 7.77%
CCOC(=O)c1c(C)oc2nc(C)nc(NCCc3ccc(OCC)cc3)c12 -23.3%
Cc1cc(=O)[nH]c2nnc(SCc3cccc(C(F)(F)F)c3)n12 3.78%
O=C(CSc1nccn1Cc1ccco1)Nc1ccc(OC(F)(F)F)cc1 -2.08%
COc1ccc(C(=O)Nc2ccc(-c3nc4cc(C)ccc4o3)c(O)c2)cc1 -8.96%
CCN1CCC(N(Cc2ccc(F)cc2)C(=O)Nc2ccc(C)c(F)c2)CC1 -19.1%

outcome, inactive:
CCOc1cc(C(=O)Nc2ccc(-c3nnc4n3CCCCC4)cc2)cc(OCC)c1OCC
COc1ccc(-n2c(=O)c3c4c(sc3n(CC(=O)C(C)(C)C)c2=O)CCCC4)c(OC)c1
CCc1ccc(CNC(=O)C2CCN(C(=O)c3ccc(-n4c(C)cc5ccccc54)s3)CC2)cc1
CCc1ccc(CNC(=O)c2cc3cc4ccc(OC)cc4nc3o2)cc1
Cc1ccc(OCc2cc(=O)n3c(-c4ccccc4)csc3n2)cc1
CCN(CC)S(=O)(=O)c1ccc2c(c1)c(=O)c(C(=O)N1CCN(c3ccccc3OC)CC1)cn2C
COc1cc(NC(=O)Nc2c[nH]c(=O)[nH]c2=O)cc(OC)c1OC
CCCCNC(=O)c1cnc2c(-c3ccc(OCC)c(OCC)c3)c(C)nn2c1-c1ccccc1
Cc1cc2c(cc3c(SCc4cccc(Cl)c4)nnc(C)n32)o1
COc1cccc(N2CCN(C(=O)c3ccc4c(Cl)c5c(nc4c3)CCCC5)CC2)c1
CC(=O)Nc1ccc(S(=O)(=O)N2CCN(c3ccc(C)c(C)c3)CC2)cc1
CC(=O)c1ccc(NC(=O)CSc2nc3c(=O)n(C)c(=O)n(C)c3n2C)cc1
Cc1cc(OCC(=O)Nc2ccc(C(=O)OC3CCCCC3)cc2)ccc1Cl
COc1ccc(OC)c(NC(=O)C2CCN(S(=O)(=O)c3c(C)noc3/C=C/c3ccc(C)cc3)CC2)c1
O=S(=O)(NCc1csc(-c2ccccc2)n1)c1ccccc1
COc1ccc(Cn2c(CNS(=O)(=O)c3ccc(Cl)s3)nc3cccnc32)cc1
Cc1ccc(C(=O)Nc2cc(-c3nc4cc(Cl)ccc4o3)ccc2C)c(C)c1
CCc1ccccc1NC(=O)Cn1c(=O)n(-c2ccccc2)c(=O)c2oc3ccccc3c21
CC(=O)c1ccc(NC(=O)c2cnc(N3CCCC3)nc2C)cc1
COc1ccc(NC(=O)Cn2c(=O)n(Cc3ccco3)c(=O)c3sc4ccccc4c32)cc1OC
O=C(C1CCCCC1)N(Cc1cccnc1)c1nc2ccc(Cl)cc2s1
Cc1ccc(N2CCN(C(=O)c3cn(C)c4ccc(S(=O)(=O)N5CCC(C)CC5)cc4c3=O)CC2C)cc1 (configuration not stated)
Cc1c2cnn(-c3ccccc3)c(=O)c2c(C)n1CC(=O)Nc1ccccc1Br
COc1ccc(C(=O)NCC(=O)OCc2cc(=O)n3nc(C4CCCCC4)sc3n2)cc1
Cc1ccccc1-c1nc(CS(=O)(=O)CC(=O)NCCCN2CCN(C)CC2)c(C)o1
Cc1ccc(SCCNC(=O)CN(c2cccc(C)c2C)S(C)(=O)=O)cc1
CC(=O)Nc1ccc(S(=O)(=O)N2CCC(n3c(C)nc4cccnc43)CC2)cc1
